Substitutions are numbered along the chain they refer to; changes in the protein carry UniProt numbers. The list shows a part of the results.
T1: RBFOX1 RRM (Homo sapiens, UniProt Q9NWB1 109-208)
T1 sequence: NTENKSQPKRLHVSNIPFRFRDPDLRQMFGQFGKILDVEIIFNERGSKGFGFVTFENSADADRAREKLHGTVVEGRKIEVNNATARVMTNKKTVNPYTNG

B1: GACUGGU (DNA:RNA)
RNA: GGGAGACCGGAAUUCAGAUUGUCCGACUGGUUUAAAUCCCGUCGUAGCCACCA
DNA 1: CAATCTGAATTCCGGTCTCCC
DNA 2: TGGTGGCTACGACGGGATT
B2: UGCCACC (DNA:RNA)
RNA: B1 RNA with G25U, A26G, U28C, G29A, G30C, U31C
DNA 1: CAATCTGAATTCCGGTCTCCC
DNA 2: TGGTGGCTACGACGGGATT
B3: GUCCAUU (DNA:RNA)
RNA: B1 RNA with A26U, U28C, G29A, G30U
DNA 1: CAATCTGAATTCCGGTCTCCC
DNA 2: TGGTGGCTACGACGGGATT
B4: CGCUCCU (DNA:RNA)
RNA: B1 RNA with G25C, A26G, G29C, G30C
DNA 1: CAATCTGAATTCCGGTCTCCC
DNA 2: TGGTGGCTACGACGGGATT
B5: UUCCCGA (DNA:RNA)
RNA: B1 RNA with G25U, A26U, U28C, G29C, U31A
DNA 1: CAATCTGAATTCCGGTCTCCC
DNA 2: TGGTGGCTACGACGGGATT
B6: UUUUGGG (DNA:RNA)
RNA: B1 RNA with G25U, A26U, C27U, U31G
DNA 1: CAATCTGAATTCCGGTCTCCC
DNA 2: TGGTGGCTACGACGGGATT
B7: GACAUAC (DNA:RNA)
RNA: B1 RNA with U28A, G29U, G30A, U31C
DNA 1: CAATCTGAATTCCGGTCTCCC
DNA 2: TGGTGGCTACGACGGGATT
B8: CUACACU (DNA:RNA)
RNA: B1 RNA with G25C, A26U, C27A, U28C, G29A, G30C
DNA 1: CAATCTGAATTCCGGTCTCCC
DNA 2: TGGTGGCTACGACGGGATT
B9: GGAGUCG (DNA:RNA)
RNA: B1 RNA with A26G, C27A, U28G, G29U, G30C, U31G
DNA 1: CAATCTGAATTCCGGTCTCCC
DNA 2: TGGTGGCTACGACGGGATT
B10: GUAAGGA (DNA:RNA)
RNA: B1 RNA with A26U, C27A, U28A, U31A
DNA 1: CAATCTGAATTCCGGTCTCCC
DNA 2: TGGTGGCTACGACGGGATT
B11: UGAGUCC (DNA:RNA)
RNA: GGGAGACCGGAAUUCAGAUUGUCCUGAGUCCUUAAAUCCCGUCGUAGCCACCA
DNA 1: CAATCTGAATTCCGGTCTCCC
DNA 2: TGGTGGCTACGACGGGATT
B12: UGCACAA (DNA:RNA)
RNA: B11 RNA with A27C, G28A, U29C, C30A, C31A
DNA 1: CAATCTGAATTCCGGTCTCCC
DNA 2: TGGTGGCTACGACGGGATT
B13: CACGGGU (DNA:RNA)
RNA: B1 RNA with G25C, U28G
DNA 1: CAATCTGAATTCCGGTCTCCC
DNA 2: TGGTGGCTACGACGGGATT
B14: AAGAGUG (DNA:RNA)
RNA: B1 RNA with G25A, C27G, U28A, G30U, U31G
DNA 1: CAATCTGAATTCCGGTCTCCC
DNA 2: TGGTGGCTACGACGGGATT
B15: ACGCACG (DNA:RNA)
RNA: B11 RNA with U25A, G26C, A27G, G28C, U29A, C31G
DNA 1: CAATCTGAATTCCGGTCTCCC
DNA 2: TGGTGGCTACGACGGGATT
B16: AUGCCGA (DNA:RNA)
RNA: B1 RNA with G25A, A26U, C27G, U28C, G29C, U31A
DNA 1: CAATCTGAATTCCGGTCTCCC
DNA 2: TGGTGGCTACGACGGGATT
B17: UGAUGCU (DNA:RNA)
RNA: B11 RNA with G28U, U29G, C31U
DNA 1: CAATCTGAATTCCGGTCTCCC
DNA 2: TGGTGGCTACGACGGGATT
B18: GCGUCUG (DNA:RNA)
RNA: B1 RNA with A26C, C27G, G29C, G30U, U31G
DNA 1: CAATCTGAATTCCGGTCTCCC
DNA 2: TGGTGGCTACGACGGGATT
B19: ACUUUCC (DNA:RNA)
RNA: B11 RNA with U25A, G26C, A27U, G28U
DNA 1: CAATCTGAATTCCGGTCTCCC
DNA 2: TGGTGGCTACGACGGGATT
B20: AGGUGAA (DNA:RNA)
RNA: B1 RNA with G25A, A26G, C27G, G30A, U31A
DNA 1: CAATCTGAATTCCGGTCTCCC
DNA 2: TGGTGGCTACGACGGGATT
B21: ACCGUCU (DNA:RNA)
RNA: B11 RNA with U25A, G26C, A27C, C31U
DNA 1: CAATCTGAATTCCGGTCTCCC
DNA 2: TGGTGGCTACGACGGGATT
B22: GACGUGU (DNA:RNA)
RNA: B1 RNA with U28G, G29U
DNA 1: CAATCTGAATTCCGGTCTCCC
DNA 2: TGGTGGCTACGACGGGATT
B23: CUACAUA (DNA:RNA)
RNA: B11 RNA with U25C, G26U, G28C, U29A, C30U, C31A
DNA 1: CAATCTGAATTCCGGTCTCCC
DNA 2: TGGTGGCTACGACGGGATT
B24: CAGAGAA (DNA:RNA)
RNA: B1 RNA with G25C, C27G, U28A, G30A, U31A
DNA 1: CAATCTGAATTCCGGTCTCCC
DNA 2: TGGTGGCTACGACGGGATT
B25: CCGUUCG (DNA:RNA)
RNA: B11 RNA with U25C, G26C, A27G, G28U, C31G
DNA 1: CAATCTGAATTCCGGTCTCCC
DNA 2: TGGTGGCTACGACGGGATT
B26: UUAAAAG (DNA:RNA)
RNA: B11 RNA with G26U, G28A, U29A, C30A, C31G
DNA 1: CAATCTGAATTCCGGTCTCCC
DNA 2: TGGTGGCTACGACGGGATT
B27: UCUGAAA (DNA:RNA)
RNA: B11 RNA with G26C, A27U, U29A, C30A, C31A
DNA 1: CAATCTGAATTCCGGTCTCCC
DNA 2: TGGTGGCTACGACGGGATT
B28: GUAGACU (DNA:RNA)
RNA: B11 RNA with U25G, G26U, U29A, C31U
DNA 1: CAATCTGAATTCCGGTCTCCC
DNA 2: TGGTGGCTACGACGGGATT
B29: UUUACAU (DNA:RNA)
RNA: B1 RNA with G25U, A26U, C27U, U28A, G29C, G30A
DNA 1: CAATCTGAATTCCGGTCTCCC
DNA 2: TGGTGGCTACGACGGGATT
B30: AUCAACG (DNA:RNA)
RNA: B1 RNA with G25A, A26U, U28A, G29A, G30C, U31G
DNA 1: CAATCTGAATTCCGGTCTCCC
DNA 2: TGGTGGCTACGACGGGATT
B31: ACCAGGG (DNA:RNA)
RNA: B1 RNA with G25A, A26C, U28A, U31G
DNA 1: CAATCTGAATTCCGGTCTCCC
DNA 2: TGGTGGCTACGACGGGATT
B32: AGUCCGU (DNA:RNA)
RNA: B1 RNA with G25A, A26G, C27U, U28C, G29C
DNA 1: CAATCTGAATTCCGGTCTCCC
DNA 2: TGGTGGCTACGACGGGATT
B33: UCUAGCG (DNA:RNA)
RNA: B11 RNA with G26C, A27U, G28A, U29G, C31G
DNA 1: CAATCTGAATTCCGGTCTCCC
DNA 2: TGGTGGCTACGACGGGATT
B34: UGCACGA (DNA:RNA)
RNA: B1 RNA with G25U, A26G, U28A, G29C, U31A
DNA 1: CAATCTGAATTCCGGTCTCCC
DNA 2: TGGTGGCTACGACGGGATT
B35: UAUGAGA (DNA:RNA)
RNA: B1 RNA with G25U, C27U, U28G, G29A, U31A
DNA 1: CAATCTGAATTCCGGTCTCCC
DNA 2: TGGTGGCTACGACGGGATT
B36: UUACAUU (DNA:RNA)
RNA: B11 RNA with G26U, G28C, U29A, C30U, C31U
DNA 1: CAATCTGAATTCCGGTCTCCC
DNA 2: TGGTGGCTACGACGGGATT
B37: GACGCCU (DNA:RNA)
RNA: B1 RNA with U28G, G29C, G30C
DNA 1: CAATCTGAATTCCGGTCTCCC
DNA 2: TGGTGGCTACGACGGGATT
B38: UAUGAAA (DNA:RNA)
RNA: B11 RNA with G26A, A27U, U29A, C30A, C31A
DNA 1: CAATCTGAATTCCGGTCTCCC
DNA 2: TGGTGGCTACGACGGGATT
B39: GUGCGCA (DNA:RNA)
RNA: B1 RNA with A26U, C27G, U28C, G30C, U31A
DNA 1: CAATCTGAATTCCGGTCTCCC
DNA 2: TGGTGGCTACGACGGGATT
B40: UGAGAAU (DNA:RNA)
RNA: B11 RNA with U29A, C30A, C31U
DNA 1: CAATCTGAATTCCGGTCTCCC
DNA 2: TGGTGGCTACGACGGGATT
B41: AUCAAAU (DNA:RNA)
RNA: B1 RNA with G25A, A26U, U28A, G29A, G30A
DNA 1: CAATCTGAATTCCGGTCTCCC
DNA 2: TGGTGGCTACGACGGGATT
B42: ACAAUAA (DNA:RNA)
RNA: B11 RNA with U25A, G26C, G28A, C30A, C31A
DNA 1: CAATCTGAATTCCGGTCTCCC
DNA 2: TGGTGGCTACGACGGGATT
B43: GUUGCUG (DNA:RNA)
RNA: B1 RNA with A26U, C27U, U28G, G29C, G30U, U31G
DNA 1: CAATCTGAATTCCGGTCTCCC
DNA 2: TGGTGGCTACGACGGGATT
B44: UCCUAGU (DNA:RNA)
RNA: B1 RNA with G25U, A26C, G29A
DNA 1: CAATCTGAATTCCGGTCTCCC
DNA 2: TGGTGGCTACGACGGGATT

Molecular target: T1, RBFOX1 RRM
Assay: EMSA; HiTS-Eq, 1 nM pool, 10 min; buffer printed only for the single-RNA assays: 10 mM Tris pH 7.5, 150 mM NaCl, 3.4 mM EDTA, 0.001% NP-40, 30 C
Settings: tags: His6 N-terminal (pET28a); label: 5' 32P
Outline: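 Relative association constants, normalised to the cognate motif, were derived by comparing read counts of each RNA species with those of the control reaction. The RNA sequenced was the free fraction, separated by 8% native PAGE after a 10 min equilibration in 50 µL of 1 nM 5′-radiolabelled RNA (7 randomized nucleotides) with increasing concentrations of purified wild-type or mutant RbFox RRM.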

Binder | binding signal
B1 | 0.0245 KA relative to UGCAUGU
B2 | 0.00621 KA relative to UGCAUGU
B3 | 0.00777 KA relative to UGCAUGU
B4 | 0.00956 KA relative to UGCAUGU
B5 | 0.0157 KA relative to UGCAUGU
B6 | 0.0026 KA relative to UGCAUGU
B7 | 0.00268 KA relative to UGCAUGU
B8 | 0.00154 KA relative to UGCAUGU
B9 | 0.0211 KA relative to UGCAUGU
B10 | 0.001 KA relative to UGCAUGU
B11 | 0.0156 KA relative to UGCAUGU
B12 | 0.00911 KA relative to UGCAUGU
B13 | 0.00452 KA relative to UGCAUGU
B14 | 0.00946 KA relative to UGCAUGU
B15 | 0.0314 KA relative to UGCAUGU
B16 | 0.02 KA relative to UGCAUGU
B17 | 0.0276 KA relative to UGCAUGU
B18 | 0.0191 KA relative to UGCAUGU
B19 | 0.00164 KA relative to UGCAUGU
B20 | 0.00772 KA relative to UGCAUGU
B21 | 0.00603 KA relative to UGCAUGU
B22 | 0.0146 KA relative to UGCAUGU

Binder | binding signal
B23 | 0.000812 KA relative to UGCAUGU
B24 | 0.00711 KA relative to UGCAUGU
B25 | 0.0126 KA relative to UGCAUGU
B26 | 0.00649 KA relative to UGCAUGU
B27 | 0.0135 KA relative to UGCAUGU
B28 | 0.00669 KA relative to UGCAUGU
B29 | 0.00198 KA relative to UGCAUGU
B30 | 0.00102 KA relative to UGCAUGU
B31 | 0.00782 KA relative to UGCAUGU
B32 | 0.00929 KA relative to UGCAUGU
B33 | 0.0126 KA relative to UGCAUGU
B34 | 0.0767 KA relative to UGCAUGU
B35 | 0.0129 KA relative to UGCAUGU
B36 | 0.00209 KA relative to UGCAUGU
B37 | 0.0147 KA relative to UGCAUGU
B38 | 0.00875 KA relative to UGCAUGU
B39 | 0.0175 KA relative to UGCAUGU
B40 | 0.0227 KA relative to UGCAUGU
B41 | 0.000176 KA relative to UGCAUGU
B42 | 0.00274 KA relative to UGCAUGU
B43 | 0.0225 KA relative to UGCAUGU
B44 | 0.00548 KA relative to UGCAUGU
